Data taken from PubChem BioAssay AID1345083 (National Center for Advancing Translational Sciences (NCATS), 2018).
About 6,200 (6.6%) of roughly 94,000 compounds were called active. The shares of active, inactive and inconclusive entries below differ from those in the screen. The call rests on the fitted dose curve; in most records, active means well fitted inhibition curve with a large enough effect; inconclusive means small, poorly fitted or top-dose-only effect; inactive means flat fitted curve, though single readings scatter. Potencies beside an inconclusive call are fits to weak or partial responses and may not hold up.

Assay: Cytotoxic Profiling in HEK 293 Cell Line of Diverse Libraries Using Quantitative High-Throughput Screening; further: nearly all actives have a fitted effect of over 60% in size
Conditions: HEK 293 viability, ATP luminescence (CellTiter-Glo), 48-72 h; activity change, negative = cytotoxicity: at 115 µM (top of the series) unless noted; series mostly up to 115 µM
Method in brief: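 HEK 293 cells seeded at 250 cells/well were exposed to compound for 48 or 72 hr at 37 degree Celsius. Viability taken as ATP content by CellTiter-Glo luminescence.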
On the % scale 0 is the no-effect control and ±100 the full control effect; potency means the concentration at half of the fitted maximal effect; tags describe the fitted curve by direction and shape.

| Structure (SMILES) | Potency | activity change, negative = cytotoxicity | outcome |
| --- | --- | --- | --- |
| COc1ccc(CCNC(=O)c2nc3sccn3c2-c2ccc(OC)cc2)cc1 | inconclusive: 89.1 µM [inhibitor, partial curve, poor fit] |  |  |
| CC(=O)N(C1CC1)C1CCOC2(CCN(C(=O)Cn3c(=O)oc4ccccc43)CC2)C1 (stereo unspecified) |  | inactive: -28.1% |  |
| COc1ccc(-c2ccc3c(c2)C(=O)N2CC[C@H](NC(=O)NC4CCCCC4)[C@H]2C(=O)N3)cc1 |  |  | inactive |
| O=C(C1CN(C2CCCC2)C(=O)N1)N1CCN(c2ncccn2)CC1 (stereo unspecified) |  | inactive: -8.26% |  |
| CC(C)CCN(CCC(=O)NCCc1ccccc1)C(=O)c1ccoc1 | inconclusive: 89.1 µM [inhibitor, single point] |  |  |
| Cc1cccc(NC(=O)Cn2c(N3CCc4ccccc4C3)nc(C)cc2=O)c1 | active: 44.7 µM |  |  |
| CO[C@H]1C(=O)N(C2CCN(C(=O)c3cnn(C)c3)CC2)[C@H]1c1ccncc1 |  |  | inactive |
| Cc1cc(C)cc(C(=O)N2CC(C(=O)NC3CCCCC3)C3(CCOCC3)C2)c1 (stereo unspecified) |  | inactive: -19.3% |  |
| Cc1ccc([S+](=O)([O-])N2CCCC2C(=O)N2CCC(N3Cc4ccccc4C3=O)CC2)cc1 (stereo unspecified) | inconclusive: 56.2 µM [inhibitor, partial curve, poor fit] |  |  |
| CN1CCC2(C1)CN(Cc1ccccc1)c1ccc(C(=O)NC3CCCCC3)cc12 (stereo unspecified) | active: 79.4 µM |  |  |
| Cc1nnc2ccc(N3CCCC(N[S+](=O)([O-])c4cccs4)C3)nn12 (stereo unspecified) |  | inactive: -11% |  |
| COc1ccc(C(=O)N2CCCn3nc(C)c(-c4ccccc4Oc4ccccc4)c32)cn1 | inconclusive: 100 µM [inhibitor, partial curve, poor fit] |  |  |
| O=C(NCC(F)(F)F)c1ccc2c(c1)C1(CCN(CC3CC3)C1)CN2Cc1ccccc1 (stereo unspecified) | inconclusive: 44.7 µM [inhibitor, partial curve, poor fit] |  |  |
| Cc1ccc(C)c(S(=O)(=O)NCCn2c(C)cnc2C2CCC2)c1 | inconclusive: 89.1 µM [inhibitor, partial curve, poor fit] |  |  |
| CC(C)NC(=O)c1cc2n(n1)CC(c1ccc3c(c1)OCO3)OC2 (stereo unspecified) | inconclusive: 89.1 µM [inhibitor, single point] |  |  |
| Cn1cc(-c2cc(=O)c3ccnc(NCc4ccc5c(c4)OCO5)c3o2)cn1 | inconclusive: 112 µM [inhibitor, partial curve] |  |  |
| Cc1noc(C)c1-c1cc2cc(C(C)C)oc2c(NCCN(C)C)n1 | active: 70.8 µM |  |  |
| COc1ccc(C(=O)N2CCOCC3(CN(Cc4cccc(C#N)c4)C3)C2)cc1OC | inconclusive: 79.4 µM [inhibitor, partial curve, poor fit] |  |  |
| COc1ccc(CN2Cc3[nH]cnc3C[C@H]2C(=O)NCc2ccc(Cl)cc2)c2ccccc12 | inconclusive: 56.2 µM [inhibitor, partial curve, poor fit] |  |  |
| O=C(NCc1ccc(Cl)nc1)c1ccn2cncc2c1 | inconclusive: 126 µM [inhibitor, single point] |  |  |
| O=C(C1CCCN1c1nccc(Nc2ccccc2F)n1)N1CCC(Cc2ccccc2)CC1 (stereo unspecified) | active: 28.2 µM |  |  |
| O=C(c1ccc(-c2ccc(N3CCCCC3)nc2)cc1)N1CCOCC1 | inconclusive: 44.7 µM [inhibitor, partial curve, poor fit] |  |  |

| Structure (SMILES) | Potency | activity change, negative = cytotoxicity | outcome |
| --- | --- | --- | --- |
| COc1cccc(CN2CCCN(Cc3ccncc3)C(c3ccccc3)CC(=O)NCC2)c1 (stereo unspecified) | inconclusive: 79.4 µM [inhibitor, partial curve, poor fit] |  |  |
| COCc1cc(CC2(NCc3ccc(CO)o3)COC2)no1 |  |  | inactive [at 172 µM] |
| COc1ccc(NC(=O)CCc2cc3cc(C)ccc3[nH]c2=O)c(OC)c1 |  | inactive: -0.474% |  |
| CC1(C)CNC(=O)c2nc(CCN3CCCc4ccccc43)[nH]c2C1 | inconclusive: 100 µM [inhibitor, single point] |  |  |
| OC1(c2csc(CN3CCOCC3)n2)CCN(Cc2ccc(F)cc2)CC1 |  |  | inactive [at 172 µM] |
| O=C(NCCN[S+](=O)([O-])c1ccccc1)c1ccc(-c2cncnc2)cc1 |  | inactive: -28.8% |  |
| O=C(Nc1ccc(Oc2ccccc2)cc1)O[C@@H]1CO[C@H]2[C@@H]1OC[C@@H]2NC(=S)Nc1ccccc1 | inconclusive: 7.08 µM [inhibitor, full curve, poor fit] |  |  |
| COc1ccc(C(=O)N2CCC(Cc3nc(-c4ccc(F)cc4)no3)CC2)c(OC)n1 | inconclusive: 11.2 µM [inhibitor, full curve, poor fit] |  |  |
| COc1cccc(-c2ccccc2NC(=O)C2CCN(CC=C(C)C)CC2)c1 | inconclusive: 31.6 µM [inhibitor, full curve, poor fit] |  |  |
| COCC1(C(=O)N2CCN(C)C3(CCNC(=O)CC3)C2)CCC1 (stereo unspecified) |  |  | inactive |
| CN1CC(=O)N(c2ccccc2)Cc2c(NCCc3ccc(Cl)cc3)ncnc21 | inconclusive: 56.2 µM [inhibitor, partial curve, poor fit] |  |  |
| COCc1ccc(C(=O)N2CCCC(CCc3cccc(OC)c3)C2)o1 (stereo unspecified) | active: 79.4 µM |  |  |
| COc1ncccc1-c1cc(C2=CCOCC2)c2cncn2c1 |  | inactive: -16.9% [at 172 µM] |  |
| Cc1cccc(OCC2(CNS(=O)(=O)c3ccc(Cl)cc3)C[C@@H](O)[C@@H](O)C2)n1 (stereo partly specified) | inconclusive: 112 µM [inhibitor, partial curve, poor fit] |  |  |
| COc1cccc(CNC(=O)C2CCCN2C(=O)c2cccc(-c3cccc(OC)c3)c2)c1 (stereo unspecified) | inconclusive: 50.1 µM [inhibitor, partial curve, poor fit] |  |  |
| Cn1cc(-c2ccncc2)cc1C(=O)N1CCN(c2ccccc2Cl)CC1 |  | inactive: -19.8% |  |
| O=C(Nc1cccc(C(F)(F)F)c1)N[C@H]1CO[C@H]2[C@@H]1OC[C@@H]2n1cc(CC2CCCCC2)nn1 | active: 39.8 µM |  |  |
| CCCCNC(=O)C1c2ccccc2C(=O)N(Cc2ccccc2)C12CCCC2 (stereo unspecified) | inconclusive: 89.1 µM [inhibitor, single point] |  |  |
| CC(=O)NC1(C)CCCN(Cc2cc(-c3cccc(N4CCOCC4)c3)cs2)C1 (stereo unspecified) | inconclusive: 89.1 µM [inhibitor, partial curve] |  |  |
| Cc1ccc(-c2ccccc2CN2CCN(C(=O)C3CCCC3)CC2)cc1Cl | inconclusive: 35.5 µM [inhibitor, partial curve, poor fit] |  |  |
| COc1ccc(CCC(=O)N2CCC3(CC2)NC(=O)N(c2cccc(F)c2)N3)cc1 | inconclusive: 31.6 µM [inhibitor, partial curve] |  |  |
| COCC1CN(C(=O)COc2ccc(Cl)cc2C)CC12CCNCC2 (stereo unspecified) | inconclusive: 89.1 µM [inhibitor, single point] |  |  |

| Structure (SMILES) | Potency | activity change, negative = cytotoxicity | outcome |
| --- | --- | --- | --- |
| O=C1C2CN(S(=O)(=O)c3ccccc3)CCN2CCS(=O)(=O)N1C1CC1 (stereo unspecified) |  | inactive: -0.639% |  |
| Cc1nn(-c2ccc(F)cc2)c(Oc2ccccc2F)c1CCC(=O)NCC1CC1 | active: 50.1 µM |  |  |
| Cc1cccc(-c2ccc(CN)cc2)c1 | active: 63.1 µM |  |  |
| CN(C)S(=O)(=O)N(C)C1CCc2nn(CC3CC3)c(=O)n2CC1 (stereo unspecified) |  | inactive: -18.1% |  |
| Cc1ccc(S(=O)(=O)c2nnn3c2nc(NCc2ccc(F)cc2)c2ccccc23)cc1 | inconclusive: 79.4 µM [inhibitor, partial curve, poor fit] |  |  |
| O=S1(=O)CCC(S(=O)(=O)Nc2ccc(F)cc2)C1 (stereo unspecified) |  | inactive: -1.08% |  |
| COc1ccc(OC)c(-c2cc(-c3cccs3)nc3c(C)noc23)c1 | inconclusive: 17.8 µM [inhibitor, full curve, poor fit] |  |  |
| CCOC(=O)C1(Cc2ccc(OC)cc2)CCN(C(=O)CCc2ccccc2OC)CC1 | inconclusive: 56.2 µM [inhibitor, partial curve, poor fit] |  |  |
| O=C(NCc1ccccc1)c1cnc2n1CCN(CCCc1ccccc1)CC2 | inconclusive: 17.8 µM [inhibitor, full curve, poor fit] |  |  |
| Cc1nc(CN2CCOC3(CCN(Cc4ccccc4Cl)CC3)C2=O)cs1 | inconclusive: 50.1 µM [inhibitor, partial curve] |  |  |
| COc1ccc(C(=O)Nc2cc(-c3cccnc3)nn2-c2ccccc2)cc1 | inconclusive: 79.4 µM [inhibitor, partial curve, poor fit] |  |  |
| COc1cc(Cl)c(C)cc1NC(=O)CN1C(=O)C(c2ccccc2)=NC12CCCC2 | inconclusive: 39.8 µM [inhibitor, partial curve] |  |  |
| OC1CC(c2cc(NCCOCc3ccc(Cl)cc3)ncn2)C1 (stereo unspecified) | inconclusive: 8.91 µM [inhibitor, full curve, poor fit] |  |  |
| CCc1ccc(C(=O)NC2CCN(c3cc(-c4ccc(OC)cc4)[nH]n3)CC2)cc1 | inconclusive: 50.1 µM [inhibitor, partial curve, poor fit] |  |  |
| COc1ccc(-n2nc(C3CCN(C(=O)c4cccc(Cl)c4)CC3)[nH]c2=O)cc1 | inconclusive: 89.1 µM [inhibitor, single point] |  |  |
| COc1ccc(C(=O)N[C@@H]2CCC[C@@H]2C(=O)NCc2cc(F)cc(F)c2)cn1 |  | inactive: 1.98% |  |
| Cc1ccc(-c2nnc(C3CN(C(=O)c4n[nH]c5ccccc45)CC34CCOCC4)o2)cc1 (stereo unspecified) | inconclusive: 50.1 µM [inhibitor, partial curve, poor fit] |  |  |
| CNCc1cccc(Oc2ccccc2)c1 | inconclusive: 112 µM [inhibitor, partial curve, poor fit] |  |  |
| Cn1c(CCNC(=O)c2ccccc2C2CCNC2)nc2ccccc21 (stereo unspecified) |  | inactive: -2.16% |  |
| CC1=C[C@@H](CNCc2ccccn2)[C@H](C(C)C)C[C@H]1Cc1nnc(-c2ccc(N(C)C)cc2)o1 | active: 11.2 µM |  |  |
| COc1ccccc1-c1cc(C(=O)Nc2ccccc2F)c2cnn(C)c2n1 | inconclusive: 50.1 µM [inhibitor, partial curve, poor fit] |  |  |
| O[C@@H]1CCN(Cc2nc(C3(O)CCN(CC4CCCCC4)CC3)cs2)C1 |  | inactive: -16.5% [at 172 µM] |  |
